Where “and” joins values, the source holds several entries; their conditions need not be identical. Identical values can stand only once. In all, about 150,000 compounds went through this assay and about 6,500 (4.3%) were called active. Roughly 12% stayed inconclusive and do not appear here. The call rests on the fitted dose curve; in most records, active means well fitted inhibition curve with a large enough effect (not every such curve was filed as active); inconclusive means small, poorly fitted or top-dose-only effect, or another doubt; inactive means no such curve, though single readings can be large or run the other way. This is a selection; strong and weak results do not stand in their true shares. The source holds several records for some structures; these can differ, active in one and inactive in another.
These molecules were tested against 15-hydroxyprostaglandin dehydrogenase [NAD(+)] (Homo sapiens) (UniProt P15428) (assay: qHTS Assay for Inhibitors of HPGD (15-Hydroxyprostaglandin Dehydrogenase)). Details: purified HPGD, NADH fluorescence kinetic, PGE2 substrate; activity change, negative = inhibition: stronger effect = lower value.
Sequence of UniProt P15428 (P15428 whole entry, looked up): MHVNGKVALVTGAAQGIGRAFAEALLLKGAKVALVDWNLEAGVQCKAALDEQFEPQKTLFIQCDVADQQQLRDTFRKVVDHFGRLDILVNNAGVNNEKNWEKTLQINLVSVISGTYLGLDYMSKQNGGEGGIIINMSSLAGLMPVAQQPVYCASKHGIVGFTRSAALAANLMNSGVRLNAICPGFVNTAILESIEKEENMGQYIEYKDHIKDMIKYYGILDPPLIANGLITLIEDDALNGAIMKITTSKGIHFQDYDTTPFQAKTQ
In short: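 NADH formation kinetics: reaction with 30 uM PGE2 and 1 mM NAD+ (final), 20 nM enzyme, Tris-HCl pH 8 with Tween 20, after 15 min compound preincubation at room temperature. Fluorescence change, last versus first of five reads.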
For `O=C(Nc1nccs1)c1ccc(COc2ccc(F)cc2)o1`, the Potency was active: 14.1 µM.
With `Cc1cc2nc3c(=O)[nH]c(=O)nc-3n(CC(O)C(O)C(O)CO)c2cc1C` (stereo unspecified) the activity change, negative = inhibition was inactive: -13.8% [middle of 4 runs].
`COc1ccc(/C=C2/CCc3ccccc3C2=O)cc1OC` was tested, and the activity change, negative = inhibition was inactive: -15.8%.
`COc1ccc(/C=C2\SC(=O)NC2=S)cc1OC` was tested, and the Potency was active: 15.8 µM.
For `CCOC(=O)c1c(C)nc2sc3c(c2c1-c1ccc(OC)cc1)NC(c1ccccc1)NC3=O` (stereo unspecified), the activity change, negative = inhibition was inactive: 121%.
`CN(C)c1ccc(/C=C2/C(=O)Nc3ccccc32)cc1` was tested, and the activity change, negative = inhibition was inactive: -24%.
For `CC(=O)N1[C@H](Cc2ccccc2)C=C[C@]1(C)C(=O)NCc1ccc(C)o1`, the activity change, negative = inhibition was inactive: -12.5%.
With `COc1ccc(/C=C2\CCCC3C2=NN(C(=O)c2scnc2C)C3c2ccc(OC)c(OC)c2)cc1OC` (stereo unspecified) the activity change, negative = inhibition was inactive: 95.9%.
In the case of `N#C/C(=C\c1ccco1)c1nc2ccccc2s1`, the activity change, negative = inhibition was inactive: -19.1%.
For `CCCNC(C)C(=O)Nc1ccccc1C` (stereo unspecified), the activity change, negative = inhibition was inactive: 1.15%.
With `CCCCC[C@H](O)/C=C/[C@@H]1[C@@H](C/C=C\CCCC(=O)O)[C@@H](O)C[C@H]1O` the activity change, negative = inhibition was inactive: -7.67%.
In the case of `CCN1/C(=C\C(C)=O)Sc2ccc(OC)cc21`, the activity change, negative = inhibition was inactive: -4.3%.
In the case of `Cc1ccc2c(c1)C1C=CCC1C(C(=O)O)N2` (stereo unspecified), the Potency was active: 20 µM.
`COc1ccc(OC)c(-n2cnc3cc(C(=O)NCCCN4CCOCC4)ccc32)c1` was tested, and the Potency was active: 25.1 µM.
For `Cc1cc(CNC(=O)C(C)Cc2ccccc2)nn1C` (stereo unspecified), the activity change, negative = inhibition was inactive: -16.8%.
`c1ccc(Cc2nnc(N3CCOCC3)c3ccccc23)cc1` was tested, and the Potency was active: 25.1 µM.
`CCCN1C2=C(C(=O)CC(C)(C)C2)C(c2ccc(F)cc2)C2=C1c1ccccc1C2=O` (stereo unspecified) was tested, and the Potency was active: 35.5 µM.
With `COc1cc(OC)cc(C(=O)NCCSCc2ccco2)c1` the Potency was active: 20 µM.
In the case of `Cc1ccc(C)c(NC(=O)/C(C#N)=C/c2cn(CC(=O)NCc3ccco3)c3ccccc23)c1`, the activity change, negative = inhibition was inactive: 56%.
For `S=c1[nH]nc(COc2ccccc2)n1C1CCCCC1`, the Potency was active: 22.4 µM.
In the case of `Cc1cccc(/C=C/c2ccccc2)n1`, the activity change, negative = inhibition was inactive: -4.59%.
In the case of `Oc1c(I)cc(I)c2cccnc12`, the activity change, negative = inhibition was inactive: -15.4%.
`Cc1ccc(NC(=O)N2CCC(c3nc4c(nnn4Cc4c(F)cccc4Cl)c(=O)[nH]3)CC2)cc1` was tested, and the Potency was active: 12.6 µM.
With `Cn1nnnc1SCC1=C(C(=O)O)N2C(=O)[C@@H](NC(=O)[C@H](O)c3ccccc3)[C@H]2SC1` the activity change, negative = inhibition was inactive: -16.4%.
`O=C(O)CC[C@@H](C(=O)O)N1C(=O)c2ccccc2C1=O` was tested, and the activity change, negative = inhibition was inactive: -4.44%.
`Nc1nc(SCc2ccc([N+](=O)[O-])cc2)c2ncn(C3OC(CO)C(O)C3O)c2n1` (stereo unspecified) was tested, and the activity change, negative = inhibition was inactive: -23.1%.
In the case of `CC1=C(/C=C/C(C)=C/C=C/C(C)=C/C(=O)Nc2ccc(O)cc2)C(C)(C)CCC1`, the activity change, negative = inhibition was inactive: -12.1% and inactive: -9.23% and inactive: -9.18%.
`O=C1C2C3C=CC(CC3)C2C(=O)N1/N=C/c1ccc(O)cc1` (stereo unspecified) was tested, and the Potency was active: 28.2 µM.
For `CN(C)[C@H]1C(=O)C(C(=O)NCN2CCCC2)=C(O)[C@]2(O)C(=O)C3=C(O)c4c(O)cccc4[C@@](C)(O)[C@H]3C[C@@H]12`, the activity change, negative = inhibition was inactive: -20.4%.
For `COc1ccc(C(=O)OCCNC(=O)c2c(Cl)nc3ccccn23)cc1`, the Potency was active: 25.1 µM.
`NC(=O)c1cc[n+](CC2=C(C(=O)O)N3C(=O)[C@@H](NC(=O)C(c4ccccc4)S(=O)(=O)[O-])[C@H]3SC2)cc1` (stereo partly specified) was tested, and the activity change, negative = inhibition was inactive: -14.4%.
`NCC(O)c1ccc(O)c(O)c1` (stereo unspecified) was tested, and the activity change, negative = inhibition was inactive: 4.61%.
In the case of `Cn1c(Cc2ccccc2)nnc1SCC(=O)c1ccc(Br)s1`, the Potency was active: 28.2 µM.
In the case of `O=C(CCCCCN1C(=O)CCC1=O)Nc1ccc2c(c1)OCO2`, the activity change, negative = inhibition was inactive: -0.42%.
For `Cc1cccc(Nc2cc(Cl)nc(SCC(=O)O)n2)c1C`, the activity change, negative = inhibition was inactive: -21.6% and inactive: -5.55% and inactive: -14.5%.
`O=C(Nc1cccc2nsnc12)c1cccs1` was tested, and the activity change, negative = inhibition was inactive: -23.3%.
In the case of `Cc1nn(-c2ccccc2)c(N2CCCC2)c1/C=N/n1cnc2scc(-c3ccccc3)c2c1=O`, the activity change, negative = inhibition was inactive: 402%.
`Cn1c(N)c(C(=O)Nc2ccc3ccccc3c2)sc1=S` was tested, and the Potency was active: 8.91 µM.
With `CCN(CC)CCCC(C)Nc1c2ccc(Cl)cc2nc2ccc(OC)cc12` (stereo unspecified) the activity change, negative = inhibition was inactive: -22%.
With `COc1ccc(/C=C/c2cc(OC)cc(=O)o2)cc1` the activity change, negative = inhibition was inactive: -17%.
For `COc1cc(C=O)ccc1O`, the activity change, negative = inhibition was inactive: -15.1%.
In the case of `O=C(CSc1nnc2ccccn12)c1ccccc1`, the activity change, negative = inhibition was inactive: 78.8%.
For `O=Cc1ccc(Sc2nnc(-c3ccccc3)o2)c([N+](=O)[O-])c1`, the Potency was active: 14.1 µM.
With `CC1CCN(C(=O)/C=C/c2ccc(C(C)(C)C)cc2)CC1` the Potency was active: 15.8 µM.
In the case of `CCCN=C(C)c1c(-c2ccccc2)[nH]n(-c2nc3ccccc3s2)c1=O`, the activity change, negative = inhibition was inactive: 156%.
For `O=C(c1ccc(CSc2nc3ccncc3[nH]2)cc1)N1CCCCC1`, the Potency was active: 0.562 µM.
With `COc1ccc(/C=N/n2cnnc2)cc1COc1ccccn1` the activity change, negative = inhibition was inactive: -13.3%.
In the case of `Cn1nnc2cc(C(=O)N3CCSCC3)ccc21`, the Potency was active: 1.58 µM.
In the case of `Cc1ccc(O)c(-c2cc(C(=O)NCc3ccncc3)[nH]n2)c1`, the Potency was active: 5.01 µM.
With `CN(C)c1ccc(O)c2c1CC1CC3[C@@H](N(C)C)C(=O)C(C(N)=O)=C(O)[C@]3(O)C(=O)C1=C2O` (stereo partly specified) the activity change, negative = inhibition was inactive: -12.3%.
With `CCOCCn1c(=NC(=O)/C=C/c2ccccc2Cl)sc2cc(NC(C)=O)ccc21` the activity change, negative = inhibition was inactive: 79.2%.
On the % scale 0 is the no-effect control and ±100 the full control effect; potency means the concentration at half of the fitted maximal effect.
